Source: the RNAGym collection of RNA variant scans (doi:10.1073/pnas.2313332121)
Variants at the floor of the assay are shown more often than the library holds them.

B1: TPR 5TU (parent)
chain: GGAUCUUCUCGAUCUAACAAAAAAGACAAAUCUGCCACAAAGCUUGAGAGCAUCUUCGGAUGCAGAGGCGGCAGCCUUCGGUGGCGCGAUAGCGCCAACGUUCUCAACUAUGACACGCAAAACGCGUGCUCCGUUGAAUGGAGUUUAUCAUG

Variants of: B1
Assay: polymerase ribozyme fitness, log enrichment relative to wild type (log ratio); higher = more active; in vitro selection for triplet polymerase activity
Outline: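 Input and output libraries were sequenced on Illumina after a single in vitro selection round, run in triplicate on PCR-built, transcribed mutant libraries of each subunit of a heterodimeric triplet polymerase ribozyme. Selection annealed libraries to a biotinylated primer, the partner subunit and triplets, incubated them frozen at −7 °C, then gel-excised extended constructs for streptavidin-bead capture and RT-PCR. Genotypes with ≥10 input reads and ≥1 read per output were kept. Fitness is the logarithm, taken in base 2, of genotype enrichment divided by wild-type enrichment, using inverse-variance-weighted replicate averages.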

Row | Variant | polymerase ribozyme fitness (log ratio)
1 | GGAUCUUCUCGAUCUAACAAAAAAGACAAAUCUGCCACAAAGCUUGAGAACCUCUUCGGAUGCAGAGGCGGCAGGCUUCGGUGGCGCGAGAGUGCCAACGUUCUCAACUAUGACACGCAAAACGCGUGCUCCGUUGACUGGAGUUUAUCAUG [G50A A52C C75G U90G C93U A138C] | ≤ -4.2
2 | GGAUCUUCUCGAUCUAACAAAAAAGACAAAUCUGCCACAAAGCUUGAGAACGUCUUCGGAUGCAGAGGCGGCAGCUUUCGGUGGCGCGAUAGCGCCAGCGUUCUCAACUAUGACACGCAAAAGGCGUGCUCCGUUGAAUGGAGUUUAUCAUG [G50A A52G C76U A98G C123G] | -2.81
3 | GGAUCUUCUCGAUCUAACAAAAAAGACAAAUCUGCCACAAAGCUUGAGAACUUCUUCGGAUGCAGAGGCGGCAGCGUUCGGUGGCGCGAUAGCGCCAACGUUCUCAACUAUGACACGCAAAACGCGUGCUCCGUUGAAUGGAGUUUAUCAUG [G50A A52U C76G] | ≤ -4.2
4 | GGAUCUUCUCGAUCUAACAAAAAAGACAAAUCUGCCACAAAGCUUGAGAACUUCUUCGGAUGCAGAGGCGGCAGCCUUCGGUGGAGAUAUGGCGCCAACGUUCUCAACUAUGACACGCAAAACGCGUGCUCCGUUGAAUAGAGUUUAUCAUG [G50A A52U C85A C87A G88U A91G G140A] | ≤ -4.2
5 | GGAUCUUCUCGAUCUAACAAAAAAGACAAAUCUGCCACAAAGCUUGAGAACAUCUUCGGAUGCGGAGGCGGCAGCCUUCGGUGGCGCGAUAGCGCCAACGUUCUCAACUAUGACACGCAAACCGCGUCCUCCGUUGAAUGGACUUUAUCAUG [G50A A64G A122C G128C G143C] | ≤ -4.2
6 | GGAUCUUCUCGAUCUAACAAAAAAGACAAAUCUGCCACAAAGCUUGAGAACAUCUUCGGAUGCUGAGGCGGCAGCCUUCGGUGGCGCGAUUGCGCCAACGAUCUCAACUAUGACACGCAAAACGCGUGCUCCGUUGAAUGGAGUUUAUCAUG [G50A A64U A91U U101A] | ≤ -4.2
7 | GGAUCUUCUCGAUCUAACAAAAAAGACAAAUCUGCCACAAAGCUUGAGAACAUCUUCGGAUGCAGCGGCGGCAGCCUUCGGUGGCGCGAUAGCGCCAACGUUCUCAACUAGGUCACGCAAAACUCGUGCUCCGUUGAACGGAGUUUAUCAUG [G50A A66C U111G A113U G124U U139C] | ≤ -4.2
8 | GGAUCUUCUCGAUCUAACAAAAAAGACAAAUCUGCCACAAAGCUUGAGAACAUCUUCGGAUGCAGGGGCGGCAGGCUUCGGUGGCGCGAUCGCGCCAACGUUCUCAACUAUGACACGCAAAACGGGUGCUCCGUUGACUGGAGUUUAUCAUG [G50A A66G C75G A91C C125G A138C] | ≤ -4.2
9 | GGAUCUUCUCGAUCUAACAAAAAAGACAAAUCUGCCACAAAGCUUGAGAACAUCUUCGGAUGCAGAGGCGGCUGCCUUCGGUGGCGAGAUAGCGCCAACGUUCUCAACUAUGACACGCAAAACGCGUGCUCCGUUGAAUGGAGAUUAUCAUG [G50A A73U C87A U144A] | ≤ -4.2
10 | GGAUCUUCUCGAUCUAACAAAAAAGACAAAUCUGCCACAAAGCUUGAGAACAUCUUCGGAUGCAGAGGCGGCUGCCGUCGGUGGCGCGAUUGCGCUAACGUUCUCAACUAUGACACGCAAAACGCGUGCUCCGUUGAAUGGAGUUUAUCAUG [G50A A73U U77G A91U C96U] | ≤ -4.2
11 | GGAUCUUCUCGAUCUAACAAAAAAGACAAAUCUGCCACAAAGCUUGAGAACAUCUUCGGAUGCAGAGGCGGCAGCCUUCGGUGGCGCGAUGGCGCCAACGUUCUCAACUAUGACACGCAACACGCGUGCUCCGUUGAAUGGAGUGUAUCAUG [G50A A91G A121C U145G] | ≤ -4.2
12 | GGAUCUUCUCGAUCUAACAAAAAAGACAAAUCUGCCACAAAGCUUGAGAACAUCUUCGGAUGCAGAGGCGGCAGCCUUCGGUGGCGCGAUAGCGCCAACGUUCUCAACUGUGACACGCAAAACGCGUGGUCAGUUGGAUGGAGUUUAUCAUG [G50A A110G C129G C132A A137G] | ≤ -4.2
13 | GGAUCUUCUCGAUCUAACAAAAAAGACAAAUCUGCCACAAAGCUUGAGAACAUCUUCGGAUGCAGAGGCGGCAGCCUUCGGUGGCGCGAUAGCGCCAACGUUCUCAACUAUGACACGCAGAACGCGUGCUCGGUUGAAUGGAGUUUAUCAUG [G50A A120G C132G] | ≤ -4.2
14 | GGAUCUUCUCGAUCUAACAAAAAAGACAAAUCUGCCACAAAGCUUGAGAAGAUCUUCGGAUGCAGAGGCGGCAGCCUUCGGUUACGCGAUAGCGCCAACGUUCUCAACUAUGACACGCAAAACGCGUGCUCCGUUGAAUGUAGUUUAUCAUG [G50A C51G G83U G84A G141U] | ≤ -4.2
15 | GGAUCUUCUCGAUCUAACAAAAAAGACAAAUCUGCCACAAAGCUUGAGAAUUUCUUCGGAUGCAGAGGCGGCAGCCUUCGGUGGCGCGAUAGCUCCAACGUUCUCAACUAUGACACGCAAAACGCGUGCUCCGAUGAAUGGAGUUUAUCAUG [G50A C51U A52U G94U U134A] | ≤ -4.2
16 | GGAUCUUCUCGAUCUAACAAAAAAGACAAAUCUGCCACAAAGCUUGAGAAUAACUUCGGAUGCAGAGGCGGCAGCCUUCGGUGGCGCGAUAGCGCCAACGUUCUCAACUAUGACACGCAAAACGCGUGCUCCCUUGAAUGGAAUUUAUCAUG [G50A C51U U53A G133C G143A] | ≤ -4.2
17 | GGAUCUUCUCGAUCUAACAAAAAAGACAAAUCUGCCACAAAGCUUGAGAACAUAUUCGGAUGCAGCGGCGGCAGCCUUCGGUGGCACGAUAGCGCCAACGUUCUUAACUUUGACACGCAAAACGCGUGCUCCUUUGAAGGGAGUUUAUCAUA [G50A C54A A66C G86A C105U A110U G133U U139G G152A] | ≤ -4.2
18 | GGAUCUUCUCGAUCUAACAAAAAAGACAAAUCUGCCACAAAGCUUGAGAACAUGUUCGGAUGCAGAGGCGGCAGCCUUCGGUGGCGAGAUAGCGCCAACGUUCUCAACUAUGACACGCAAAACGCGUGCUCCGUUGAAUAGAGUUUAUCAUG [G50A C54G C87A G140A] | ≤ -4.2
19 | GGAUCUUCUCGAUCUAACAAAAAAGACAAAUCUGCCACAAAGCUUGAGAACAUGUUCGGAUGCAGAGGCGCCAGCCUUCGGUGGCGCGAUAGCGCCGACGUUCUCAACUAUGACACUCAAAACGCGUGCUCCGUUUAAUGGAGUUUAUCAUG [G50A C54G G71C A97G G117U G136U] | ≤ -4.2
